Assay results as given in PubChem BioAssay AID463173 (ICCB-Longwood Screening Facility, Harvard Medical School, 2010).
Screen size: about 52,000 compounds; about 4,300 (8.3%) were called active. No stated cut-off is given here; in the data, active means survival mostly below about 52% (no sharp cut-off); inactive means mostly above about 56%. The list shows a part of the results.

What follows are compounds tested on DeltatarO mutant (assay: S. aureus survival, RN4220 and DeltatarO strains – OD600, teichoic acid synthesis inhibitors, primary screen (AID 463173)). Conditions: S. aureus RN4220 wild type/DeltatarO growth, OD600, 18 h, hits give low values, screened at 18.75 µg/mL (by protocol).

| Structure (SMILES) | survival |
| --- | --- |
| CCCN(C(=O)c1coc(=O)c2ccccc12)c1ccccc1C | active: 56% |
| CC(C)CC(=O)Nc1c(C(=O)N2CCN(c3ccccc3)CC2)oc2ccccc12 | inactive: 92% |
| O=C(COc1ccccc1[N+](=O)[O-])N(Cc1ccco1)c1ccccn1 | inactive: 63% |
| COc1cc2c(=O)n(CCc3ccccc3)c(=O)n(CC(=O)Nc3ccccc3)c2cc1OC | inactive: 98% |
| O=C(C1CCC1)N1CCc2cc(S(=O)(=O)NCc3ccc(F)cc3)ccc21 | inactive: 93% |
| COc1ccc(C)cc1NC(=O)N1CCCn2nc(C)cc21 | inactive: 73% |
| COc1cc(NC(=O)c2cc(S(=O)(=O)N3CCc4ccccc43)cn2C)cc(OC)c1OC | inactive: 63% |
| CC(C)n1c(=N)c(C(=O)NCc2ccccc2)cc2c(=O)n3ccccc3nc21 | inactive: 87% |
| Cc1ccc(C)c(CN2C(=O)c3ccccc3S(=O)(=O)c3ccc(C(=O)N4CCCCC4)cc32)c1 | inactive: 61% |
| CCc1ccccc1N(C)C(=O)c1cc2c(=O)oc3ccccc3c2s1 | inactive: 42% |
| CC(=O)c1cccc(NC(=O)c2noc3c2CCCC3)c1 | inactive: 131% |
| Cc1ccccc1Cn1c(CN2CCCC(C)C2)nc2c1c(=O)n(C)c(=O)n2C (centres undefined) | inactive: 97% |
| Cc1ccc(C)c(N2CCN(C(=O)c3noc4c3CCCCC4)CC2)c1 | inactive: 106% |
| O=C(Nc1ccc(S(=O)(=O)Nc2cccc(C(F)(F)F)c2)cc1)c1ccco1 | inactive: 81% |
| CCOc1ccc(C(=O)c2cn(CC(=O)Nc3ccc(Cl)cc3)c3cc4c(cc3c2=O)OCCO4)cc1 | inactive: 115% |
| CCc1cccc(C)c1NC(=O)c1cccc(C(=O)Nc2c(C)cccc2CC)c1 | inactive: 76% |
| COc1ccc(OC)c(NC(=O)/C=C/c2ccc(C)o2)c1 | active: 40% |
| CCOc1ccccc1NC(=O)Cn1c(=O)n(-c2cccc(C)c2)c(=O)c2c1c1cc(OC)ccc1n2C | inactive: 67% |
| Cc1ccc(-c2c(C#N)c(SCC(=O)c3ccc(F)cc3)nc3c2CCCC3)o1 | inactive: 119% |
| COc1ccc(C(=O)Cn2c(=O)c(-c3cc(C)ccc3NC(C)=O)nc3ccccc32)cc1 | inactive: 74% |
| CC(=O)c1cc2c(cc1N/C(=N/S(=O)(=O)c1ccc(Br)cc1)c1ccccc1)OCO2 | inactive: 69% |
| O=C(Cn1c(=O)n(CC2CCC(C(=O)NCCc3ccccc3)CC2)c(=O)c2ccccc21)Nc1cccc(F)c1 (centres undefined) | inactive: 85% |
| COc1ccc(C2C=C(c3ccccc3)Nc3nc(NS(=O)(=O)c4ccc(Cl)cc4)nn32)cc1 (centres undefined) | active: 3% |

| Structure (SMILES) | survival |
| --- | --- |
| COC(=O)c1ccccc1NC(=O)N1CCc2c(sc3c2CCCC3)C1c1ccc(F)cc1 (centres undefined) | inactive: 118% |
| O=C(COc1ccccc1)NC1CC(=O)N(c2ccc3c(c2)OCCO3)C1 (centres undefined) | inactive: 80% |
| O=C(CC1COc2ccccc2O1)NCc1ccccc1 (centres undefined) | inactive: 85% |
| COc1cc(CN2CCN(S(=O)(=O)c3ccccc3)CC2)cc(OC)c1O | inactive: 57% |
| CCc1ccccc1NC(=O)C1=C(C)C(=O)OC12CCCCCC2 | inactive: 58% |
| O=C(CNS(=O)(=O)c1cccs1)N1CCN(c2cccc(C(F)(F)F)c2)CC1 | inactive: 83% |
| COc1ccc(CNC(=O)c2ccc(CS(=O)(=O)c3ccccc3OC)o2)cc1 | inactive: 95% |
| O=C(NCCc1nc2ccccc2n1Cc1ccc(F)cc1)c1ccco1 | inactive: 47% |
| Cc1ccc(C)c(-c2[nH]c3c(c2-c2c(-n4cccc4)n(C)c(=O)[nH]c2=O)c(=O)[nH]c(=O)n3C)c1 | active: 59% |
| CCN(CC)S(=O)(=O)c1ccc2c(c1)N(CC(=O)N1CCN(c3ccc(F)cc3)CC1)C(=O)CO2 | inactive: 94% |
| CCOc1ccc(CCNC(=O)Cn2nc(-c3ccc(C)cc3)ccc2=O)cc1OCC | inactive: 72% |
| CCN(CC)S(=O)(=O)c1ccc2oc(C(=O)N(C)Cc3ccccc3)c(C)c2c1 | active: 40% |
| COc1ccc(Cn2c(=O)c3oc4ccccc4c3n(Cc3ccc(F)cc3)c2=O)cc1 | inactive: 81% |
| Cc1cccc(N2CCN(C(=O)CCCCn3c(=O)[nH]c4ccsc4c3=O)CC2)c1C | inactive: 51% |
| COc1cc(C2CC(=O)Nc3cc4c(cc32)OCCO4)cc(Br)c1OC (centres undefined) | inactive: 68% |
| Cc1cc(Nc2cccc(Cl)c2)nc2ccc(NC(=O)Cc3cccc(C(F)(F)F)c3)cc12 | inactive: 64% |
| Cc1cccc(NC(=O)C(=O)NCC(c2ccc3c(c2)OCO3)N2CCN(C)CC2)c1C (centres undefined) | inactive: 74% |
| CCC(C)(C)n1nnnc1C(c1cccnc1)N1CCCC(C)C1 (centres undefined) | inactive: 91% |
| COc1ccc(CNC(=O)c2cc3c(=O)oc4ccc(C)cc4c3s2)c(OC)c1 | inactive: 86% |
| COc1ccc(OC)c(NC(=O)c2cccn2-c2nnc(N3CCCCC3)s2)c1 | inactive: 75% |
| COc1cc(NC(=O)CSc2ncc(S(=O)(=O)c3ccc(Br)cc3)c(=O)[nH]2)cc(OC)c1 | inactive: 58% |
| Cc1c2cnn(CC(=O)NCCc3ccccc3)c(=O)c2c(C)n1Cc1ccccc1 | inactive: 77% |
| CCN(CC)S(=O)(=O)c1ccc2c(c1)c(=O)c(C(=O)N1CCN(c3ccc(F)cc3)CC1)cn2C | inactive: 125% |

| Structure (SMILES) | survival |
| --- | --- |
| CCc1ccc(NC(=O)CSC2=Nc3ccccc3C3=NC(CC(=O)NCc4ccccc4)C(=O)N23)cc1 (centres undefined) | inactive: 74% |
| O=C(Cn1ncc2c3ccccc3n(Cc3cccc(Cl)c3)c2c1=O)NC1CCCCCC1 | inactive: 129% |
| O=C(Nc1ccccc1)c1cc2sccc2n1Cc1ccccc1 | inactive: 87% |
| CC(=O)N1CCc2cc(S(=O)(=O)CCC(=O)NCc3ccc(Cl)cc3)ccc21 | inactive: 71% |
| COC(=O)CCN(c1ccccc1)S(=O)(=O)c1cc(-c2cc(C)no2)ccc1OC | inactive: 77% |
| CCN1CCSc2ccc(C(=O)NCc3ccc(OC)cc3)cc21 | inactive: 66% |
| CC(C(=O)N1CCCCC1)N(c1ccccc1)S(C)(=O)=O (centres undefined) | inactive: 79% |
| O=C(NCCCc1ccccc1)C1CCN(C(=O)N2CCOc3ccc(Cl)cc32)CC1 | active: 46% |
| CCCC(=O)N1CCCC(c2nc3c(nnn3Cc3ccccc3)c(=O)[nH]2)C1 (centres undefined) | inactive: 102% |
| Cn1ccc2c(OCC(=O)Nc3cc(C(F)(F)F)ccc3Cl)cccc2c1=O | inactive: 101% |
| CCOc1ccccc1NC(=O)CCn1nc(C)c(S(=O)(=O)N2CCCCC2)c1C | inactive: 87% |
| COc1cc(C)c(C)cc1S(=O)(=O)Nc1cccc(-c2ccc(N3CCOCC3)nn2)c1 | inactive: 77% |
| CCOCc1ccccc1Nc1ncnc2onc(-c3ccc(Cl)cc3)c12 | inactive: 125% |
| CCC(Sc1nncn2c1cc1oc(C)cc12)C(=O)Nc1ccc(F)cc1 (centres undefined) | inactive: 54% |
| CCc1cccc(NC(=O)C(c2ccccc2)N2Cc3ccccc3C2=O)c1 (centres undefined) | inactive: 87% |
| COCCn1c(=N)c(C(=O)NC(C)c2ccccc2)cc2c(=O)n3cc(C)ccc3nc21 (centres undefined) | inactive: 67% |
| COc1ccc(CCNC(=O)C(=O)NCC(c2ccco2)S(=O)(=O)c2ccc(F)cc2)cc1 (centres undefined) | inactive: 89% |
| O=C1CCSC2(C(=O)N(Cc3ccc(F)cc3)c3ccccc32)N1c1ccc(F)c(F)c1 (centres undefined) | inactive: 83% |
| CCNC(=O)CC1C(=O)N(c2cccc(OC)c2)C(=O)N1Cc1ccc(OC)c(OC)c1 (centres undefined) | inactive: 80% |
| CCOc1ccc2oc(=O)cc(CN3CCN(C(=O)c4ccc(F)cc4)CC3)c2c1 | active: 31% |
| COC(=O)c1sc(N)c(C#N)c1C | inactive: 74% |
| COC(=O)CCc1csc(N)n1 | inactive: 96% |
| COc1cccc(NC(=O)Cn2c(=O)n(-c3ccc(C)cc3)c(=O)c3ccc(C(=O)NCc4ccco4)cc32)c1 | inactive: 80% |

| Structure (SMILES) | survival |
| --- | --- |
| O=S(=O)(Nc1cccc(-c2ccc(N3CCCCCC3)nn2)c1)c1cccc(F)c1 | inactive: 84% |
| CCOc1ccccc1N(CC(=O)N1CCc2ccccc2C1)S(=O)(=O)c1ccccc1 | active: 37% |
| N#CCn1cc(C(=O)C(F)(F)F)c2ccccc21 | inactive: 111% |
| Cc1nc2ncnn2c(C)c1CCC(=O)NCc1ccccc1Cl | inactive: 97% |
| O=C(Cn1cc(SCc2c(F)cccc2Cl)c2ccccc21)N1CCCCCC1 | inactive: 69% |
| O=C(O)C1C2C=CC(C2)C1C(=O)NCC1CCCO1 (centres undefined) | inactive: 91% |
| COc1ccc(-n2nc(C(=O)N(C)c3cc(C)ccc3C)c3c4ccccc4n(C)c3c2=O)cc1Cl | inactive: 110% |
| Cc1ccccc1OCC(=O)N1CCOCC1 | inactive: 102% |
| CCOc1ccc(NS(=O)(=O)c2ccc(-c3cc(C)no3)s2)cc1 | inactive: 87% |
| c1ccc(-n2ncc3c(N4CCOCC4)ncnc32)cc1 | inactive: 68% |
| CC(C)Oc1ccc(CNC(=O)CCCN2C(=O)c3cccnc3Oc3ccc(Cl)cc32)cc1 | inactive: 88% |
| CCC(=O)N1CCc2cc(Br)cc(S(=O)(=O)Nc3ccc(C)cc3C)c21 | inactive: 94% |
| Cc1ccc(C(=O)ON2C(=O)c3ccccc3C2=O)cc1 | inactive: 75% |
| COc1ccc(CC(=O)N2CCc3cc(OC)c(OC)cc3C2COc2ccc(OC)cc2)cc1 (centres undefined) | inactive: 135% |
| CCN(C(=O)c1cc2c(s1)-c1c(C)cccc1OC2)c1ccccc1F | inactive: 97% |
| CCc1cc(=O)oc2c3c(c(Cl)cc12)OCN(Cc1cccc(OC)c1)C3 | inactive: 71% |
| Cc1cc2ccccc2n1CCNC(=O)c1cccc(Br)c1 | inactive: 56% |
| O=C(CSc1cn(CC(=O)N2CCOCC2)c2ccccc12)Nc1ccccc1F | inactive: 88% |
| O=C(Nc1ccc2nn(-c3ccccc3)nc2c1)c1cc2ccccc2o1 | inactive: 63% |
| COc1ccc2oc(=O)cc(CN3CCN(Cc4ccccc4)CC3)c2c1 | inactive: 83% |
